Data from the supplement of paper PMC4967469.
pIC50: −log10 of the molar value. Lines with a small IC50 respond at low doses; fits outside the tested doses are given as limits. For AUC the same curve is integrated over the 256-fold range of doses and scaled to a fraction; the more sensitive the line, the further below 1. For some of these results: The top dose, if marked as inferred, comes from the curve model; the source does not state it.

Assays:
Experiment in all cases: Viability of human cancer cell lines after 72 h of drug (GDSC screen)
Bosutinib = compound: COc1cc(Nc2c(C#N)cnc3cc(OCCCN4CCN(C)CC4)c(OC)cc23)c(Cl)cc1Cl [Bosutinib]; conditions: top dose 2 µM
Experimental: (§1)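 Human cancer cell lines in 384-well plates, medium with 10% serum, drug for 72 h over a 256-fold dose range (nine 2-fold or five 4-fold steps up to the top dose). Adherent lines were fixed and stained with the nucleic acid dye Syto60, suspension lines read with resazurin; signal relative to control wells, capped at 0 and 100%. One two-parameter sigmoid per drug and line, fitted in a mixed model over all curves with the slope shared within a line.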

Midostaurin = compound: CO[C@@H]1[C@H](N(C)C(=O)c2ccccc2)C[C@H]2O[C@]1(C)n1c3ccccc3c3c4c(c5c6ccccc6n2c5c31)C(=O)NC4 [Midostaurin]; conditions: top dose 0.512 µM; top dose inferred
Experimental: as §1

IOX2 = compound: O=C(O)CNC(=O)c1c(O)c2ccccc2n(Cc2ccccc2)c1=O [IOX2]; conditions: top dose 0.1 µM; top dose inferred
Experimental: as §1

NVP-BHG712 = compound: Cc1ccc(C(=O)Nc2cccc(C(F)(F)F)c2)cc1Nc1nc(-c2cccnc2)nc2c1cnn2C [NVP-BHG712]; conditions: top dose 10.24 µM; top dose inferred
Experimental: as §1

Roscovitine = compound: CC[C@H](CO)Nc1nc(NCc2ccccc2)c2ncn(C(C)C)c2n1 [Roscovitine]; conditions: top dose 16 µM; top dose inferred
Experimental: as §1

Cell Line | AUC (Bosutinib) | pIC50 (Bosutinib) | AUC (Midostaurin) | pIC50 (Midostaurin) | AUC (IOX2) | pIC50 (IOX2) | AUC (NVP-BHG712) | pIC50 (NVP-BHG712) | AUC (Roscovitine) | pIC50 (Roscovitine)
A3-KAW (B-cell lymphoma, suspension) | 0.983 | < 5.70 | 0.891 | 6.41 | 0.992 | < 7.00 | 0.721 | 5.63 | 0.79 | 5.25
BC-1 (B-cell lymphoma, suspension) | 0.989 | < 5.70 | 0.87 | 6.44 | 0.98 | < 7.00 | 0.862 | 5.17 | 0.855 | 5.00
D-247MG (glioma, adherent) | 0.98 | < 5.70 | 0.773 | 6.56 | 0.974 | < 7.00 | 0.88 | < 4.99 | 0.836 | < 4.80
D-336MG (glioma, adherent) | 0.939 | < 5.70 | 0.695 | 6.88 | 0.899 | < 7.00 | 0.896 | < 4.99 | 0.95 | < 4.80
DEL (lymphoid neoplasm, suspension) | 0.985 | < 5.70 |  |  | 0.993 | < 7.00 | 0.99 | < 4.99 | 0.95 | < 4.80
DMS-114 (small cell lung carcinoma, adherent) | 0.985 | < 5.70 | 0.984 | < 6.29 | 0.964 | < 7.00 | 0.973 | < 4.99 | 0.959 | < 4.80
ECC12 (stomach, suspension) |  |  | 0.843 | 6.29 |  |  |  |  | 0.952 | < 4.80
EW-12 (Ewing sarcoma, suspension) |  |  |  |  |  |  |  |  | 0.975 | < 4.80
GA-10 (Burkitt lymphoma, suspension) | 0.837 | 5.97 | 0.852 | 6.52 | 0.99 | < 7.00 |  |  | 0.809 | 5.17
H9 (lymphoid neoplasm, suspension) | 0.981 | < 5.70 | 0.871 | 6.47 | 0.988 | < 7.00 | 0.753 | 5.54 | 0.963 | < 4.80
KALS-1 (glioma, adherent) |  |  | 0.889 | < 6.29 | 0.975 | < 7.00 | 0.949 | < 4.99 | 0.912 | < 4.80
KARPAS-231 (B-cell leukaemia, suspension) | 0.768 | 6.23 | 0.895 | 6.43 | 0.991 | < 7.00 |  |  | 0.943 | < 4.80
KASUMI-1 (acute myeloid leukaemia, suspension) | 0.871 | 5.72 |  |  | 0.984 | < 7.00 |  |  | 0.985 | < 4.80
KOPN-8 (B-cell leukaemia, suspension) | 0.929 | < 5.70 | 0.91 | < 6.29 | 0.989 | < 7.00 | 0.598 | 5.94 | 0.948 | < 4.80
KP-N-YN (neuroblastoma, adherent) | 0.986 | < 5.70 | 0.96 | < 6.29 | 0.966 | < 7.00 | 0.969 | < 4.99 | 0.972 | < 4.80
